Source: publication PMC4336329 (PLoS ONE, 2015)
In all, about 310,000 compounds went through this assay and about 2,200 (0.71%) showed an effect of 50% or more. The effect is printed as a negative number. The list shows a part of the results.

target: human ether-à-go-go-related gene (hERG) potassium channel (human, UniProt Q12809); experiment: primary screen, population patch clamp on CHO cells stably expressing hERG
Sequence (Q12809 whole entry, looked up): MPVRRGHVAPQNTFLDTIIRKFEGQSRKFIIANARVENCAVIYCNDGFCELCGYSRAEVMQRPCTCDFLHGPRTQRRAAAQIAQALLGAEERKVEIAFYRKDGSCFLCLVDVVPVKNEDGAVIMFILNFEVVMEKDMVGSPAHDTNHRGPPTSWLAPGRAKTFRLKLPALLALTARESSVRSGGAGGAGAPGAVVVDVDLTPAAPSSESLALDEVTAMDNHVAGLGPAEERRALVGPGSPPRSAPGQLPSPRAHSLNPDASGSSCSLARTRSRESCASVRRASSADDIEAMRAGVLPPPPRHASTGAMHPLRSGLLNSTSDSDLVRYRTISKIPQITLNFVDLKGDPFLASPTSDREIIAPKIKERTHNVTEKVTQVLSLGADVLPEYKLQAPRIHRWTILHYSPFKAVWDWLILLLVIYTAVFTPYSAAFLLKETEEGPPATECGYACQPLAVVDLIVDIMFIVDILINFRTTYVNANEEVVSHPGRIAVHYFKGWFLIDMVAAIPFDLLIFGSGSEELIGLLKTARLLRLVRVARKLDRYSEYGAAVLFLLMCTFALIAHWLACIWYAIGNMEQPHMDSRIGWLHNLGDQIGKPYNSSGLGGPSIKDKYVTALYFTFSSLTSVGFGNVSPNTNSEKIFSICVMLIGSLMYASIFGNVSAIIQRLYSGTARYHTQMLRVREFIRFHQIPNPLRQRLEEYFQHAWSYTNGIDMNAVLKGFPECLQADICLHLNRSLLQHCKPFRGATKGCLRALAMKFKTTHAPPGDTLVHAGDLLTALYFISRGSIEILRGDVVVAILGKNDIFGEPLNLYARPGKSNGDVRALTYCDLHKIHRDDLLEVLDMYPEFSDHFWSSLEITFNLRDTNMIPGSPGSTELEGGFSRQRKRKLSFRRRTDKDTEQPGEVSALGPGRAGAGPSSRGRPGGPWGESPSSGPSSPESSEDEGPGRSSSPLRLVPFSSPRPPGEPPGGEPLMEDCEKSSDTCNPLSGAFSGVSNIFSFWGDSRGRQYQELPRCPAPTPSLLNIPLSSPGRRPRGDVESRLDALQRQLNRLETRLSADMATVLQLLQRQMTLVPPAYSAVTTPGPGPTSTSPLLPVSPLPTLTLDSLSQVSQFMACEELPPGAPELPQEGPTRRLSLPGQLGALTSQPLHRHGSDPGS

Going from `CC(C)[C@H](NC(=O)Nc1ccc(Oc2ccccc2)cc1)C(=O)O` to `COc1ccc(C(=O)NNS(=O)(=O)c2ccccc2)cc1`, the “hERG current change (%, negative = inhibition) at 1uM” value falls from 11.2% to 6.72%.

First: COc1cc(/C=C(\C#N)c2nnc(N3CCOCC3)n2-c2ccccc2)ccc1O
Second: COc1cc(OC)c(S(=O)(=O)Nc2ccccc2N2CCOCC2)cc1NC(C)=O
The “hERG current change (%, negative = inhibition) at 1uM” value of the first is higher: 18.2% for the first, 10.7% for the second.

Going from `Cc1ccc(C)c(OCC(=O)Nc2ccc(N3CCOCC3)cc2N2CCOCC2)c1` to `Cc1c(O)ccc(C(=O)CN2CCN(c3ccc(F)cc3)CC2)c1O`, the “hERG current change (%, negative = inhibition) at 1uM” value rises from 4.89% to 17.1%.

Going from `CCOC(=O)N1CCC(=NNc2nc3ccccc3s2)CC1` to `CCOC(=O)CN1CCC(c2ccccc2)CC1`, the “hERG current change (%, negative = inhibition) at 1uM” value rises from 4.29% to 13.2%.

Going from `O=S(=O)(Nc1ccc2c(c1)OCCO2)c1cccc2nsnc12` to `O=C1COc2ccc3ccccc3c21`, the “hERG current change (%, negative = inhibition) at 1uM” value rises from 5.63% to 11.5%.

First: O=C(COc1ccccc1)OCC(=O)c1ccc(S(=O)(=O)N2CCCCC2)cc1
Second: Cc1ccc(S(=O)(=O)N2CCN(C(=O)COC(=O)CCOc3ccccc3)CC2)c(C)c1
The “hERG current change (%, negative = inhibition) at 1uM” value of the first is higher: 15.7% for the first, 10.6% for the second.

Compared with `CCOC(=O)CSc1ncccn1`, `Cc1occc1C(=O)N1CCN(c2ncccn2)CC1` is lower in “hERG current change (%, negative = inhibition) at 1uM” value: 6.09% for the first, 3.61% for the second.

Going from `Cc1cc(C)c(C)c(S(=O)(=O)NCc2ccc(C(=O)NCC3CCCO3)cc2)c1C` (stereo not drawn) to `COc1cccc(OCc2cc(C(=O)N(C)CCC3CCCCO3)no2)c1` (stereo not drawn), the “hERG current change (%, negative = inhibition) at 1uM” value falls from 10.4% to -0.0585%.

Going from `Cc1csc(NC(=O)Cc2nn(C)c(=O)c3ccccc23)n1` to `CCOC(=O)Cc1c(C)nc2c(-c3ccccc3)c(C)nn2c1C`, the “hERG current change (%, negative = inhibition) at 1uM” value falls from 9.7% to 0.954%.

First: CC1CC(C)CN(S(=O)(=O)c2ccc(NN)nc2)C1 (stereo not drawn)
Second: CC1CNCCN1S(=O)(=O)c1cccc2cnccc12 (stereo not drawn)
The “hERG current change (%, negative = inhibition) at 1uM” value of the first is higher: 13.3% for the first, 11.5% for the second.

Compared with `CC(C)S(=O)(=O)c1csc(C(=O)NNC(=O)Nc2ccccc2)c1Cl`, `CC(C)(C)c1ccc(NC(=O)c2ccsc2)cc1` is higher in “hERG current change (%, negative = inhibition) at 1uM” value: 2.93% for the first, 12.6% for the second.

Going from `CCCNc1c(NS(=O)(=O)c2c(F)c(F)c(F)c(F)c2F)c(=O)oc2ccccc12` to `COc1ccc(NC(=O)COC(=O)CNS(=O)(=O)c2ccc(F)c(F)c2F)cc1OC`, the “hERG current change (%, negative = inhibition) at 1uM” value rises from -1.76% to 19.1%.

Compared with `CN(CC(=O)O/N=C(\N)c1cccc([N+](=O)[O-])c1)S(=O)(=O)c1ccccc1`, `COc1ccccc1NS(=O)(=O)c1cccc(C(=O)N/N=C/c2ccc(C)o2)c1` is higher in “hERG current change (%, negative = inhibition) at 1uM” value: 7.41% for the first, 10% for the second.

First: NC(=O)CC(NC(=O)Cc1ccc(Br)cc1)c1ccc(NC2CCC2)c([N+](=O)[O-])c1 (stereo not drawn)
Second: CCS(=O)(=O)N1Cc2ccccc2CC1C(=O)NCc1cccc(OC)c1 (stereo not drawn)
The “hERG current change (%, negative = inhibition) at 1uM” value of the first is lower: -2.11% for the first, 8.84% for the second.

Compared with `COc1ccccc1/C=C/C(=O)OCC(=O)Nc1c(F)cccc1F`, `COc1cccc(/C=N/NC(=O)C[n+]2ccccc2)c1O.[Cl-]` is lower in “hERG current change (%, negative = inhibition) at 1uM” value: 20.1% for the first, 10.2% for the second.

Going from `CC(=O)Nc1cccc(NC(=O)CSc2nnc3ccc(-c4ccccn4)nn23)c1` to `C(=C\c1ccccc1)/CSc1nnc(-c2ccccn2)n1Cc1ccco1`, the “hERG current change (%, negative = inhibition) at 1uM” value falls from 17.9% to -3.84%.

Going from `COc1ccc([C@@H]2[C@@H]3C(=O)N(C(C)(C)C)C(=O)[C@@H]3[C@]3(Cc4ccc(Cl)cc4)C(=O)N(c4ccc(Br)cc4)C(=O)N23)cc1` to `CC(=O)Nc1ccc(N2C(=O)CSC2c2ccc(F)cc2)cc1` (stereo not drawn), the “hERG current change (%, negative = inhibition) at 1uM” value rises from 1.72% to 7.98%.

Going from `Cc1cc(C)c(NC(=O)CS(=O)CC(=O)NCCCc2ccccc2)c(C)c1` (stereo not drawn) to `CCn1ncc(NC(=S)NCCc2ccccc2)c1C(N)=O`, the “hERG current change (%, negative = inhibition) at 1uM” value falls from 5.98% to 2.4%.

Compared with `COc1ccc(C(=O)Nc2nnc(S(=O)(=O)N(C)Cc3ccc(F)cc3)s2)cc1OC`, `CCN(c1ccc(C)cc1)S(=O)(=O)c1nnc(NC(=O)c2ccco2)s1` is higher in “hERG current change (%, negative = inhibition) at 1uM” value: 11.1% for the first, 16.2% for the second.

Compared with `O=C(CCN1C(=O)C2C3C=CC(C3)C2C1=O)Nc1ccc2c(c1)OCO2` (stereo not drawn), `O=C(CS(=O)CC(=O)N(CC(=O)NC1CCCC1)C1CCCC1)Nc1ccc(F)cc1` (stereo not drawn) is lower in “hERG current change (%, negative = inhibition) at 1uM” value: 10.4% for the first, 9.19% for the second.

Compared with `Cc1ccccc1C(=O)Nc1ccc(Br)cn1`, `CC(NC(=O)c1cc(=O)[nH]c2ccccc12)c1ccccc1` (stereo not drawn) is lower in “hERG current change (%, negative = inhibition) at 1uM” value: 17.3% for the first, 12.7% for the second.

First: Cc1cc(C)cc(OCC(=O)OCC(=O)Nc2ccc(Cl)cn2)c1
Second: Cc1ccc(C(=O)OCC(=O)Nc2cc(C(C)(C)C)no2)c(C)c1
The “hERG current change (%, negative = inhibition) at 1uM” value of the first is lower: 6.82% for the first, 9.54% for the second.

Going from `COc1ccnc(CSC(N)=Nc2ccc(F)cc2)c1.Cl` to `COc1cccc(C2CC(c3ccccc3Cl)n3nc(N)nc3N2)c1` (stereo not drawn), the “hERG current change (%, negative = inhibition) at 1uM” value rises from -4.25% to 4.93%.

Going from `COc1ccc(OCC(=O)N2CCN(C/C=C/c3ccccc3)CC2)cc1` to `COC(=O)c1ccccc1NC(=O)N1CCN(c2ccc(F)cc2)CC1`, the “hERG current change (%, negative = inhibition) at 1uM” value rises from -33.6% to 6.07%.

Compared with `O=C1CC(c2ccc(F)cc2)Sc2nc(-c3ccccc3)c(-c3ccccc3)n21` (stereo not drawn), `CCCCOC(=O)Cn1c(-c2ccccc2)nc2ccccc2c1=O` is higher in “hERG current change (%, negative = inhibition) at 1uM” value: 5.79% for the first, 13.6% for the second.

First: CCOC(=O)N1CCN(CC(O)COc2cc(C)ccc2C(C)C)CC1.Cl (stereo not drawn)
Second: COc1cccc(C(=O)N2CCN(C(=O)c3cccs3)CC2)c1OC
The “hERG current change (%, negative = inhibition) at 1uM” value of the first is lower: 0.636% for the first, 4.18% for the second.

First: O=C(c1cc2ccccc2cc1O)N1CCN(c2cccc(Cl)c2)CC1
Second: O=C(c1ccc2c(c1)N(Cc1ccccc1)CCS2)N1CCCCC1
The “hERG current change (%, negative = inhibition) at 1uM” value of the first is higher: 11.9% for the first, 2.19% for the second.

First: CC(C)NCC(O)c1ccc(NS(C)(=O)=O)cc1.Cl (stereo not drawn)
Second: Cc1ccc(/C=C/C(=O)Nc2ccc(S(=O)(=O)Nc3ncccn3)cc2)cc1
The “hERG current change (%, negative = inhibition) at 1uM” value of the first is higher: 30.7% for the first, 27.4% for the second.

Going from `Cc1nn(C)cc1CN1CCC(n2nccc2NC(=O)CCCc2ccccc2)CC1` to `Cc1ccccc1-c1cc(C(=O)NCC2CC2)n(CC2CC(c3cccnc3)=NO2)n1` (stereo not drawn), the “hERG current change (%, negative = inhibition) at 1uM” value falls from 3.86% to -2.27%.

Compared with `Oc1ccc2ccccc2c1/C=N/Nc1ccccc1`, `CN(Cc1ccccc1)c1ncnc2c1cnn2-c1ccccc1` is lower in “hERG current change (%, negative = inhibition) at 1uM” value: 14.9% for the first, -5.15% for the second.

Compared with `CC(NC(=O)C(=O)NN=C1CCCCCCC1)c1ccccc1` (stereo not drawn), `CC(Oc1ccccc1)C(=O)Nc1nnc(C2CCCCC2)s1` (stereo not drawn) is lower in “hERG current change (%, negative = inhibition) at 1uM” value: 8.8% for the first, -3.72% for the second.

First: O=Cc1ccc2ccc3cccnc3c2n1
Second: O=C1N/C(=C\c2ccc(O)cc2)C(=O)c2ccccc21
The “hERG current change (%, negative = inhibition) at 1uM” value of the first is higher: 7.93% for the first, 7.6% for the second.

First: O=C(NC1CCCc2ccccc21)C12CC3CC(CC(O)(C3)C1)C2 (stereo not drawn)
Second: CC1(C)CC(NC(=O)CC2CCCCC2)CC(C)(C)N1
The “hERG current change (%, negative = inhibition) at 1uM” value of the first is higher: 14.6% for the first, 11.6% for the second.

First: CCOC(=O)c1cc(CC)sc1N
Second: CCCCCCOC(=O)CCc1c(C)nc(N)[nH]c1=O
The “hERG current change (%, negative = inhibition) at 1uM” value of the first is higher: 13.8% for the first, 9.83% for the second.

Compared with `Cc1ccc(N=C2NC(=O)C(CC(=O)O)S2)cc1` (stereo not drawn), `CNC(=O)CCc1ccc(OC)cc1` is higher in “hERG current change (%, negative = inhibition) at 1uM” value: 8.56% for the first, 12.2% for the second.

Compared with `O=C(CSCc1ccco1)N1CCc2ccccc21`, `Cc1nnc(SCC(=O)N2CCN(S(=O)(=O)c3ccccc3)CC2)[nH]c1=O` is higher in “hERG current change (%, negative = inhibition) at 1uM” value: 5.34% for the first, 13% for the second.

Compared with `CC1(C)Cc2nc3sc4c(=O)[nH]cnc4c3cc2CS1`, `C=CCn1c(N)c(S(=O)(=O)c2cccs2)c2nc3ccccc3nc21` is lower in “hERG current change (%, negative = inhibition) at 1uM” value: 14% for the first, 9.64% for the second.

Going from `Cc1cccc(CC(=O)N2CCOCC2)c1` to `COc1cc(C=O)cc(Cl)c1OC(=O)N1CCOCC1`, the “hERG current change (%, negative = inhibition) at 1uM” value rises from 17.2% to 21.2%.

First: COc1ccccc1-n1cn[nH]c1=S
Second: COc1cnc(-c2ccccc2)nc1Oc1ccc(C(C)(C)C)cc1
The “hERG current change (%, negative = inhibition) at 1uM” value of the first is higher: 12.7% for the first, -4.65% for the second.

Compared with `CCc1ccc2c(COn3nnc4ccc(S(=O)(=O)N(C)C)cc43)cc(=O)oc2c1`, `CCOc1ccccc1Oc1coc2cc(O)ccc2c1=O` is lower in “hERG current change (%, negative = inhibition) at 1uM” value: 2.18% for the first, -1.15% for the second.

Going from `COc1ccc(-c2noc(C3CCCN(C(=O)c4ccc(C)cc4)C3)n2)cc1` (stereo not drawn) to `COc1cc(/C=N/NC(=O)c2cnccn2)ccc1O`, the “hERG current change (%, negative = inhibition) at 1uM” value rises from 0.795% to 5.14%.

Compared with `O=C(c1cc(S(=O)(=O)N2CCCCC2)ccc1F)N1CCCCC1`, `Cc1cc(S(=O)(=O)N2CCCCCC2)c(Cl)cc1Cl` is higher in “hERG current change (%, negative = inhibition) at 1uM” value: -0.367% for the first, 20.3% for the second.

Going from `c1cncc(-c2cccnc2)c1` to `CC(/C=N/Nc1nnc2c(n1)[nH]c1ccccc12)=C\c1ccco1`, the “hERG current change (%, negative = inhibition) at 1uM” value falls from 17.3% to 6.89%.

Going from `Cc1ccsc1C(=O)Nc1n[nH]c(C(F)(F)F)n1` to `COC(=O)COc1ccsc1C(=O)OC`, the “hERG current change (%, negative = inhibition) at 1uM” value falls from 7.63% to -3.78%.

Compared with `CC(C)(C)c1[nH]c2ccccc2c1/C=N/O`, `O=C(CCS(=O)(=O)Cc1ccccc1F)NCCCN1CCCCC1` is higher in “hERG current change (%, negative = inhibition) at 1uM” value: 14.9% for the first, 15.6% for the second.

Compared with `C=CC(=O)OCCOCCOCCOCCOC(=O)C=C`, `Cc1onc(NC(=O)c2ccc([N+](=O)[O-])o2)c1Br` is lower in “hERG current change (%, negative = inhibition) at 1uM” value: 9.38% for the first, 8.08% for the second.

In the case of `CCN(CC)CCNc1cc(C)nc2c1C(=O)C(=O)C=C2N1CCCCC1`, the “hERG current change (%, negative = inhibition) at 1uM” value is reported as 5.93%.
